Test results taken from the supplement of paper PMC3724861.
This is one part of the list.

system: T1, Caupolican (Caup) homeodomain DNA-binding domain; test: PBM E-score (8-mer, recovered from the published 9-mer minima) (E-score (dimensionless, -0.5 to 0.5)); Drosophila protein; higher = stronger relative binding preference, active = 0.31 or more
T1 sequence: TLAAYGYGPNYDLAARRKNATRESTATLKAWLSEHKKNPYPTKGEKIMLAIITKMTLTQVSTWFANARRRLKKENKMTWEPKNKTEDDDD
Description: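 Protein binding microarray (PBM): in vitro transcribed/translated Caupolican (Caup) homeodomain DNA-binding domain (residues 214-303) applied at 100 nM to a universal 8-mer PBM array (Agilent AMADID 015681). The 8-mer enrichment score (E-score, range -0.5 to 0.5) was computed, and each 9-mer score is the minimum E-score of its two constituent 8-mers. The E-score is the same for a 9-mer and its reverse complement; 0.31 is the stated binding threshold.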

Row | Sequence | PBM E-score
1 | CATTAAGG | inactive: -0.00904
2 | TGGACGAA | inactive: 0.0126
3 | CGTTGAGC | inactive: -0.0886
4 | ACGCCCGT | inactive: -0.114
5 | ATACCATA | inactive: 0.195
6 | CTGGTGCC | inactive: -0.0994
7 | ACAGTAAT | inactive: 0.232
8 | GCTCGACC | inactive: -0.211
9 | CGGACTTC | inactive: -0.186
10 | TAAAATAA | inactive: 0.0766
11 | CTACCGGA | inactive: -0.109
12 | TCGGTTCA | inactive: -0.0112
13 | CACCTATC | inactive: 0.145
14 | CACCTGAA | inactive: -0.00184
15 | CTGCTTTA | inactive: 0.0339
16 | GGACAGTA | inactive: 0.133
17 | AATCTGGC | inactive: -0.135
18 | GATGCTCA | inactive: -0.0713
19 | ATTCTGCG | inactive: 0.0221
20 | AAGTCGCG | inactive: -0.0379
21 | AACGAGCG | inactive: 0.0888
22 | ACACAAAA | inactive: 0.224
23 | CTTTCCCC | inactive: -0.175
24 | ACTGAAAC | inactive: 0.0856
25 | CCGCCGGC | inactive: -0.236

Row | Sequence | PBM E-score
26 | CCGTCAGA | inactive: -0.134
27 | ATGTTGTA | active: 0.431
28 | AGCTGCTG | inactive: -0.116
29 | ATTTTTAC | inactive: 0.128
30 | AACCTAGT | inactive: 0.0542
31 | ACTGTGTG | inactive: 0.0583
32 | CACGACCC | inactive: -0.0834
33 | GCGTAGAA | inactive: -0.0167
34 | ACAGTAGT | inactive: 0.15
35 | CGTCTATA | inactive: 0.0331
36 | AACGCCGG | inactive: -0.0848
37 | GACCTAAC | inactive: 0.0777
38 | GGAAAGGA | inactive: -0.0886
39 | AAGTGTGT | inactive: 0.245
40 | CTTCTCGA | inactive: 0.015
41 | CTAAACGA | inactive: 0.0555
42 | ATCTGGTG | inactive: 0.0648
43 | CATATAGA | inactive: 0.159
44 | GGCTTCAC | inactive: -0.193
45 | GCCGATGA | inactive: -0.172
46 | GAGACACC | inactive: -0.0907
47 | CGAGGACA | inactive: 0.0575
48 | AGTCTGAT | inactive: 0.0829
49 | ACGCGATC | inactive: 0.0727
50 | ATGCCCAA | inactive: 0.0055

Row | Sequence | PBM E-score
51 | TAATCACA | ≥ 0.248
52 | AATCGTCG | inactive: -0.0569
53 | CCCCGAAA | inactive: -0.0878
54 | ACCTTAAG | inactive: -0.159
55 | ATGAACCG | inactive: 0.039
56 | ACGAAAGC | inactive: -0.038
57 | GAGGTCAC | inactive: -0.138
58 | CGACCCCC | inactive: -0.356
59 | CCACAGAC | inactive: -0.047
60 | GGACTCAC | inactive: -0.173
61 | ACCGGTGG | inactive: -0.187
62 | AATGACCG | inactive: -0.0257
63 | GCTGATAC | inactive: 0.0701
64 | CCCCAGGA | inactive: -0.246
65 | CCGTCGAC | inactive: -0.0932
66 | AATGGCAC | inactive: 0.00307
67 | GCAGGTAA | inactive: -0.00378
68 | GTCCCCAA | inactive: -0.0949
69 | ATACCCAA | inactive: 0.0238
70 | AGAAGCTA | inactive: -0.0747
71 | CAAGGCGG | inactive: -0.0607
72 | ACGTTGAC | inactive: 0.1
73 | GTGGTAGA | inactive: -0.0232
74 | AATGCGCG | inactive: -0.051
75 | ACACGCCT | inactive: 0.223

Row | Sequence | PBM E-score
76 | CTCGCGCA | inactive: -0.126
77 | CGAGAGCG | inactive: -0.158
78 | GTTTACGA | inactive: 0.164
79 | AACGATGA | inactive: 0.0452
80 | CAGGCGCG | inactive: -0.232
81 | CCGCTCCG | inactive: -0.23
82 | ACTCGGAG | inactive: -0.12
83 | TACTATAA | ≥ 0.232
84 | CAGCAACC | inactive: -0.0555
85 | AAACCCTC | inactive: -0.111
86 | TGTATAAA | inactive: 0.261
87 | ACAGAACC | inactive: 0.014
88 | ACCTGATC | inactive: 0.0465
89 | TATCAAGA | ≥ 0.182
90 | AACGCTTG | inactive: 0.0171
91 | CTCTTAAC | inactive: 0.0321
92 | ACGAGAAC | inactive: 0.0861
93 | CTGACTCC | inactive: -0.167
94 | GCACGGTA | inactive: 0.0312
95 | GCCCGCAC | inactive: -0.169
96 | ACGATATG | inactive: 0.14
97 | ATGTACGC | inactive: 0.29
98 | ACATTTAA | inactive: 0.16
99 | AAAGGCGG | inactive: -0.0845
100 | TAGGCAAA | inactive: -0.0532

Row | Sequence | PBM E-score
101 | GCAATCAC | inactive: 0.0334
102 | AATGAGGC | inactive: -0.148
103 | ATTCCCAC | inactive: -0.0202
104 | GCACTTCC | inactive: -0.177
105 | AATACCTG | inactive: 0.107
106 | ACTCGCTA | inactive: -0.105
107 | GCCCGGAC | inactive: -0.163
108 | AAACCACT | inactive: 0.0715
109 | AATAGCGA | inactive: 0.165
110 | CTGATTGA | inactive: 0.0462
111 | GAACAGGC | inactive: 0.0467
112 | CCTCCGAA | inactive: -0.149
113 | ACCGATTA | inactive: 0.057
114 | AATAGGTC | inactive: 0.117
115 | AGTGTGAT | inactive: 0.104
116 | ACGCACAC | inactive: 0.0386
117 | ATAAGCGA | inactive: 0.0457
118 | CGTCACAG | inactive: 0.0559
119 | GAGAAGTA | inactive: 0.0161
120 | CGCACGAC | inactive: -0.0375
121 | ATTGCACA | inactive: 0.113
122 | CGGGGAGC | inactive: -0.242
123 | GTGAAGTA | inactive: 0.0389
124 | CCCGAGGG | inactive: -0.224
125 | TATAACAA | inactive: 0.306

Row | Sequence | PBM E-score
126 | ATTTCGTC | inactive: 0.0811
127 | CCTGTCAC | inactive: 0.144
128 | AGTCGAAT | inactive: 0.021
129 | ACCCACCT | inactive: -0.166
130 | AGGTGGGC | inactive: -0.18
131 | AACCGTTC | inactive: -0.102
132 | CCGACAAC | inactive: 0.198
133 | CCTGTACC | inactive: 0.11
134 | AATGAGAA | inactive: 0.00508
135 | GGCTCCCC | inactive: -0.332
136 | ATAATGCG | inactive: 0.0827
137 | CGGGATAC | inactive: 0.0126
138 | ATCATGTG | inactive: 0.226
139 | AACTTAGT | inactive: -0.0383
140 | CATCGAAC | inactive: 0.0773
141 | ACGGCAGA | inactive: -0.0972
142 | AAACTACA | active: 0.331
143 | GCCTGGGA | inactive: -0.127
144 | ACTGATCG | inactive: 0.0372
145 | AGCACCCA | inactive: -0.0889
146 | GAGGGGGA | inactive: -0.347
147 | ATACGAAC | inactive: 0.147
148 | GCCATGGC | inactive: -0.246
149 | ACAGAAGC | inactive: 0.0412
150 | CTCCCAGA | inactive: -0.16

Row | Sequence | PBM E-score
151 | AGTTCCTA | inactive: 0.0222
152 | GACACCCA | inactive: 0.0402
153 | GGGCCAGA | inactive: -0.206
154 | AAGAATCT | inactive: -0.0458
155 | ACGTTCAT | inactive: 0.101
156 | GAACCAAC | inactive: 0.0185
157 | ATCCGCCA | ≥ -0.0933
158 | GATATCGA | inactive: 0.111
159 | ACTCTTAG | inactive: -0.0263
160 | GATCTCCA | inactive: -0.106
161 | GATACGAC | inactive: 0.117
162 | AGGTCGAT | inactive: -0.0468
163 | GGCTTCCC | inactive: -0.202
164 | AGTACCTC | inactive: 0.115
165 | GTTTAACA | inactive: 0.256
166 | GTGCCTTA | inactive: -0.0425
167 | CAAGTTGC | inactive: 0.032
168 | CCTCCACA | inactive: -0.164
169 | AGTGATAC | inactive: 0.0617
170 | ATGTCTAA | inactive: 0.288
171 | GAACAGGA | inactive: 0.16
172 | AAATCAGT | inactive: 0.135
173 | CCCAACAG | inactive: -0.0789
174 | ATAACCAC | inactive: 0.167
175 | GTCACGAC | inactive: 0.139

Row | Sequence | PBM E-score
176 | GGAATGAC | inactive: 0.0513
177 | GGTTCCCA | inactive: -0.103
178 | CGCCGTTA | inactive: -0.0518
179 | AAGTCACA | inactive: 0.0474
180 | ACGTTAGA | inactive: 0.0532
181 | CAGACGAC | inactive: 0.0504
182 | CAAACGCC | inactive: -0.0758
183 | ACTTTATC | inactive: 0.0909
184 | GGGCCTCA | inactive: -0.273
185 | GGAGCTTA | ≥ -0.0262
186 | GAACTCCC | inactive: -0.11
187 | GACCCCGA | inactive: -0.174
188 | GGGTGGAC | inactive: -0.109
189 | CGATTTGA | inactive: 0.0488
190 | ACCGACTA | inactive: 0.0195
191 | AGCTGCAA | inactive: -0.077
192 | GGGTCTCA | inactive: -0.141
193 | CCTGTTGC | inactive: 0.0638
194 | GTCGGCAA | inactive: -0.08
195 | CTAATTGC | inactive: -0.00967
196 | CAGCGCCC | inactive: -0.274
197 | CAAATGCC | inactive: -0.164
198 | CCGAGCGA | inactive: -0.0487
199 | GGGATAAC | inactive: 0.0133
200 | AAGACCCG | inactive: -0.184

Row | Sequence | PBM E-score
201 | AATAGGCT | inactive: -0.0328
202 | AACAGCGC | inactive: 0.0512
203 | GGTTCCAA | inactive: -0.0408
204 | ACAACTAG | inactive: 0.206
205 | TCTCCTAA | inactive: 0.0625
206 | AAGCCTCA | inactive: -0.102
207 | AGGCATGA | inactive: -0.0469
208 | TCGAAAAA | inactive: -0.00773
209 | ACTCCTCC | inactive: -0.132
210 | GGGCTAGA | inactive: -0.158
211 | AATGCTAT | inactive: 0.0644
212 | ACGTAAAC | inactive: -0.00203
213 | TACTTCGA | inactive: 0.103
214 | AAACCGTC | inactive: -0.0672
215 | TCGAGGAA | inactive: -0.067
216 | AACACTTG | inactive: 0.198
217 | GCCTACAA | inactive: 0.0833
218 | CCCCGAGA | inactive: -0.183
219 | CGGAGTTA | inactive: -0.0226
220 | GTTCTAAA | inactive: 0.0252
221 | CGCTCCAA | inactive: -0.105
222 | GATGATTA | inactive: 0.0929
223 | CGTCCGCA | inactive: -0.0747
